Values of other authors in patent US10646600B2, “HER2 polypeptides useful for imaging and monitoring tumors and cancers” (GE HEALTHCARE LIMITED, priority 2013, dated 2020).

Molecular target: T1, human HER2-ECD-Fc (Homo sapiens, UniProt P04626)
T1 construct: Fc (C)
Conditions: reference (27); read-out: binding to human HER2-ECD-Fc; cited from earlier work

Substance: ZHER2:2891: parent Affibody, optimized scaffold with 11 amino acid substitutions in the nonbinding surface (AEAKYAKEMRNAYWEIALLPNLTNQQKRAFIRKLYDDPSQSSELLSEAKKLNDSQAPKVD)
- Kd: 0.076 nM
